The record followed here is ChEMBL document CHEMBL4888484, “Replenishing the malaria drug discovery pipeline: Screening and hit evaluation of the MMV Hit Generation Library 1 (HGL1) against asexual blood stage Plasmodium falciparum ,using a nano luciferase reporter read-out” (2022).

The campaign covered roughly 150,000 compounds. About 540 (0.36%) showed an effect of 50% or more. This is one part of the list.

The assay relates to Plasmodium falciparum. Briefly: Primary screen in NF54 nanoGlo assay, in single point, at 2uM, 72h; a lower Z score goes with more inhibition. It is filed as functional, Erythrocyte. The conditions noted are these: timepoint 72 hour.
Take `N=C1Cc2ncnn2C(n2nc(-c3ccc(F)cc3)cc2C(F)(F)F)=NN1`: the “% Inhibition” value is -9% and the Z score is 1.34.

For `O=C(CNC1CC1)NCc1cc(F)cc(C(F)(F)F)c1`, the “% Inhibition” value is on record as -19% and the Z score is 1.72.

With `Cc1nc[nH]c1CNc1cc(C(=O)N2CCc3ccccc3C2)cc(S(=O)(=O)N(C)C)c1`, the “% Inhibition” value was -17% and the Z score was 1.95.

Regarding `C=CCN(CC=C)C(=O)NCc1nc(C)c(C)s1`, the “% Inhibition” value was -9% and the Z score was found to be 1.37.

`CC(C)c1nc(CC(=O)NCCc2ncn(C)n2)cs1`: the “% Inhibition” value was -11% and the Z score came to 1.82.

For the molecule `CCc1ccc(C2CN3C(=O)N(c4cccc5ccccc45)C(=O)[C@]3(C)c3[nH]c4ccccc4c32)cc1` (stereo partly specified), the “% Inhibition” value is listed as -13% and the Z score was 1.66.

Regarding `CCC(C)Oc1ccc(NC(=O)NCC2CCCOC2)cc1` (stereo unspecified), the “% Inhibition” value was 1% and the Z score was -0.24.

Regarding `Cc1nccc(NC(=O)c2nn(C(C)C)cc2Br)n1`, the “% Inhibition” value is given as -5% and the Z score is 1.04.

For `c1cnc(-c2ccnc(N[C@H]3CCCC34CCOCC4)n2)cn1`, the “% Inhibition” value is 9% and the Z score is -1.12.

On to `Cc1occc1C(=O)NC1CCN(C(=O)c2cc(F)cc3cccnc23)CC1`, for which the “% Inhibition” value is -12% and the Z score is recorded as 1.73.

With `CCC1(CC)C(NC(=O)CCN2CCN(C(C)C)CC2)CC1OC` (stereo unspecified), the “% Inhibition” value turned out to be 9% and the Z score was -1.7.

Take `O=C(Nc1nc2ccccn2n1)C12CCC(C(F)(F)F)(CC1)CC2`: the “% Inhibition” value was found to be 0% and the Z score is 0.08.

For `CN1C(=O)C(C)(C)c2cc(S(=O)(=O)N(C)CC(=O)NC3CCCCCC3)ccc21`, the “% Inhibition” value was -15% and the Z score worked out at 2.97.

For the molecule `CN1N=C(C(=O)Nc2ccccc2CN2CCCCC2)CCC1=O`, the “% Inhibition” value is on record as -13% and the Z score worked out at 2.06.

On to `Cc1nn(C)c(C)c1CNC(=O)Nc1ccc2nscc2c1`, for which the “% Inhibition” value is -1% and the Z score is given as 0.11.

In the case of `COc1cccc(C(=O)N2CCC[C@H](c3nc(-c4ccncc4)ncc3-c3ccccc3C)C2)c1OC`, the “% Inhibition” value was 13% and the Z score is -1.69.

`COC(=O)N1CCCC(NC2CCc3c(OC)cccc32)C1` (stereo unspecified): the “% Inhibition” value is given as -10% and the Z score came out at 1.28.

For `COC[C@@H]1CCCN1C(=O)NCc1ccc(S(N)(=O)=O)cc1`, the “% Inhibition” value is -18% and the Z score is reported as 2.93.

As to `CCOc1ccc(OCC)c(NS(=O)(=O)c2cc(-c3c(C)noc3NC(C)=O)ccc2OC)c1`, the “% Inhibition” value was determined as 14% and the Z score is -2.02.

Turning to `COCC[C@](C)(O)CNC(=O)c1ccccc1Cl`, the “% Inhibition” value is listed as -6% and the Z score is listed as 1.11.

As to `CCCOc1ccccc1CCNC(=O)N1CCC2(CCC(=O)N2)CC1`, the “% Inhibition” value is given as 2% and the Z score is listed as -0.3.

Consider `O=C(NCc1cccc(F)c1)N1CCC([C@@H](O)CCc2ccccc2)CC1`, for which the “% Inhibition” value was determined as 7% and the Z score is given as -0.92.

Consider `CCC1CC(CC(=O)NC2CC(O)C2(C)C)CCO1` (stereo unspecified), for which the “% Inhibition” value was -6% and the Z score is given as 1.02.
